# Reference: ChEMBL document CHEMBL1961873, “Compounds: GSK PKIS; Assays: Nanosyn kinase panel” (2012)
# For some assays here: Shown are results outside the selection of strong results, which stands elsewhere. The list shows a part of the results, in another mix than the full data.
# Legend:
# [1] = target: Leukocyte tyrosine kinase receptor (Homo sapiens) (UniProt P29376); conditions: at 1 µM;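 also: each value is the mean inhibition of LTK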
# [2] = target: Tyrosine-protein kinase Lyn (Homo sapiens) (UniProt P07948); conditions: at 0.1 µM
# [3] = target: Tyrosine-protein kinase Lyn (Homo sapiens) (UniProt P07948); conditions: at 1 µM
# [4] = target: Tyrosine-protein kinase Lyn (Homo sapiens) (UniProt P07948); conditions: at 0.1 µM; remark: listed apart in the source
# [5] = target: Tyrosine-protein kinase Lyn (Homo sapiens) (UniProt P07948); conditions: at 1 µM; remark: listed apart in the source
# [6] = target: T1, Tyrosine-protein kinase Mer (Homo sapiens) (UniProt Q12866); conditions: at 0.1 µM
# T1 sequence (whole entry): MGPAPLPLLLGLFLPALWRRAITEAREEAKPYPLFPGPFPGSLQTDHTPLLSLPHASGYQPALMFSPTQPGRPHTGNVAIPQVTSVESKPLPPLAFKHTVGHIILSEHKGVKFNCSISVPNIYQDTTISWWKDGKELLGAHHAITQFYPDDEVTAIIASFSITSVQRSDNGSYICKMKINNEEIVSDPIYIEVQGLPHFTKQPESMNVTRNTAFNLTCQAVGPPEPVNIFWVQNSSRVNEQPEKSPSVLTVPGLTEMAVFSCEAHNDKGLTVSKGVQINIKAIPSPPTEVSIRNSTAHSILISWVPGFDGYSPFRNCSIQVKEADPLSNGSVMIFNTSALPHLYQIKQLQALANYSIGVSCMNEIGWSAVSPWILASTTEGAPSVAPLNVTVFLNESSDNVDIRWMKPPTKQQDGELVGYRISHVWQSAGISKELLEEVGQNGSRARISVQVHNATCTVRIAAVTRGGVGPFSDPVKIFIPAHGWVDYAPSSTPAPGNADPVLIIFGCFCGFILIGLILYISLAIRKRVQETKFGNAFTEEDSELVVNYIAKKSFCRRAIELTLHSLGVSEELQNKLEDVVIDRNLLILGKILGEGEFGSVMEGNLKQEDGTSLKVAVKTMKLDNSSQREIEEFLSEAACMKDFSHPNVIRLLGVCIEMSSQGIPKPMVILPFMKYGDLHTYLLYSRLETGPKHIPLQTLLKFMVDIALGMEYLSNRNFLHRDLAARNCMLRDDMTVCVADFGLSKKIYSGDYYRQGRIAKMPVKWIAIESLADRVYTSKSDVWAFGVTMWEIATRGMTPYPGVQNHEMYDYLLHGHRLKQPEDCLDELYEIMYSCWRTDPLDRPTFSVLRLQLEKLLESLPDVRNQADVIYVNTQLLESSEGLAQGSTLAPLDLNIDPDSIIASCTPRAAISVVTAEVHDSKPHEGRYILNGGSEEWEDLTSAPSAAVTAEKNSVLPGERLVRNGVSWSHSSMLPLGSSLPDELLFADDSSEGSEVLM
# [7] = target: T1, Tyrosine-protein kinase Mer (Homo sapiens); conditions: at 1 µM
# [8] = target: Hepatocyte growth factor receptor (Homo sapiens) (UniProt P08581); conditions: at 0.1 µM
# [9] = target: Hepatocyte growth factor receptor (Homo sapiens) (UniProt P08581); conditions: at 1 µM
# [10] = target: T2, Muscle, skeletal receptor tyrosine-protein kinase (Homo sapiens) (UniProt O15146); conditions: at 0.1 µM
# T2 sequence (whole entry): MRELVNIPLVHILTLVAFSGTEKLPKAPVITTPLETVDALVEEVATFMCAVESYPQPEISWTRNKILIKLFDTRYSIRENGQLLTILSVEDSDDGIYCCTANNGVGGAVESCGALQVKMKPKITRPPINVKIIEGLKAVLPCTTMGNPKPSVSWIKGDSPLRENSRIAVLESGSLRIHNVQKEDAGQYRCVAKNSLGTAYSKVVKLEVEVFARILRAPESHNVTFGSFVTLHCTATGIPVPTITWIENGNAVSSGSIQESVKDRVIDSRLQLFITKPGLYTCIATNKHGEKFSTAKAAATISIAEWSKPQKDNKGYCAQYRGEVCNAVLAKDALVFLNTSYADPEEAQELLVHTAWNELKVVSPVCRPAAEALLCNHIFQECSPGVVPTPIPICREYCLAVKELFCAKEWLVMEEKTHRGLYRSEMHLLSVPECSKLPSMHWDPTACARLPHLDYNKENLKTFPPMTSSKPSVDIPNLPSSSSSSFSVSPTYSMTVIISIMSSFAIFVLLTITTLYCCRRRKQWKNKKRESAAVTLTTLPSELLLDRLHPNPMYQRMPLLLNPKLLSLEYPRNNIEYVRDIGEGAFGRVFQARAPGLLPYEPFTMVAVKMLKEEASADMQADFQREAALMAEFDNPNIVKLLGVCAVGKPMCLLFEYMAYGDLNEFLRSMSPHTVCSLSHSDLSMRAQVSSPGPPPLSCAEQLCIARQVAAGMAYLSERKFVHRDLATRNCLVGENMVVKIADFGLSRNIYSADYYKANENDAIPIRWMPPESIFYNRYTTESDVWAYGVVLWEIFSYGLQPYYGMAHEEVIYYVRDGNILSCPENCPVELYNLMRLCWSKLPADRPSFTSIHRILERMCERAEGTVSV
# [11] = target: T2, Muscle, skeletal receptor tyrosine-protein kinase (Homo sapiens); conditions: at 1 µM
# [12] = target: Platelet-derived growth factor receptor alpha (Homo sapiens) (UniProt P16234); conditions: at 0.1 µM
# [13] = target: Platelet-derived growth factor receptor alpha (Homo sapiens) (UniProt P16234); conditions: at 1 µM
# [14] = tested on: Platelet-derived growth factor receptor alpha (Homo sapiens), P16234 [D842V]; conditions: at 0.1 µM
# [15] = tested on: Platelet-derived growth factor receptor alpha (Homo sapiens), P16234 [D842V]; conditions: at 1 µM
# [16] = tested on: Platelet-derived growth factor receptor alpha (Homo sapiens), P16234 [T674I]; conditions: at 0.1 µM
# [17] = tested on: Platelet-derived growth factor receptor alpha (Homo sapiens), P16234 [T674I]; conditions: at 1 µM
# [18] = tested on: Platelet-derived growth factor receptor alpha (Homo sapiens), P16234 [V561D]; conditions: at 0.1 µM
# [19] = tested on: Platelet-derived growth factor receptor alpha (Homo sapiens), P16234 [V561D]; conditions: at 1 µM
# [20] = target: Platelet-derived growth factor receptor beta (Homo sapiens) (UniProt P09619); conditions: at 0.1 µM;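 also: reported value is the mean percent inhibition of the kinase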
# UniProt P09619, sequence (P09619 whole entry): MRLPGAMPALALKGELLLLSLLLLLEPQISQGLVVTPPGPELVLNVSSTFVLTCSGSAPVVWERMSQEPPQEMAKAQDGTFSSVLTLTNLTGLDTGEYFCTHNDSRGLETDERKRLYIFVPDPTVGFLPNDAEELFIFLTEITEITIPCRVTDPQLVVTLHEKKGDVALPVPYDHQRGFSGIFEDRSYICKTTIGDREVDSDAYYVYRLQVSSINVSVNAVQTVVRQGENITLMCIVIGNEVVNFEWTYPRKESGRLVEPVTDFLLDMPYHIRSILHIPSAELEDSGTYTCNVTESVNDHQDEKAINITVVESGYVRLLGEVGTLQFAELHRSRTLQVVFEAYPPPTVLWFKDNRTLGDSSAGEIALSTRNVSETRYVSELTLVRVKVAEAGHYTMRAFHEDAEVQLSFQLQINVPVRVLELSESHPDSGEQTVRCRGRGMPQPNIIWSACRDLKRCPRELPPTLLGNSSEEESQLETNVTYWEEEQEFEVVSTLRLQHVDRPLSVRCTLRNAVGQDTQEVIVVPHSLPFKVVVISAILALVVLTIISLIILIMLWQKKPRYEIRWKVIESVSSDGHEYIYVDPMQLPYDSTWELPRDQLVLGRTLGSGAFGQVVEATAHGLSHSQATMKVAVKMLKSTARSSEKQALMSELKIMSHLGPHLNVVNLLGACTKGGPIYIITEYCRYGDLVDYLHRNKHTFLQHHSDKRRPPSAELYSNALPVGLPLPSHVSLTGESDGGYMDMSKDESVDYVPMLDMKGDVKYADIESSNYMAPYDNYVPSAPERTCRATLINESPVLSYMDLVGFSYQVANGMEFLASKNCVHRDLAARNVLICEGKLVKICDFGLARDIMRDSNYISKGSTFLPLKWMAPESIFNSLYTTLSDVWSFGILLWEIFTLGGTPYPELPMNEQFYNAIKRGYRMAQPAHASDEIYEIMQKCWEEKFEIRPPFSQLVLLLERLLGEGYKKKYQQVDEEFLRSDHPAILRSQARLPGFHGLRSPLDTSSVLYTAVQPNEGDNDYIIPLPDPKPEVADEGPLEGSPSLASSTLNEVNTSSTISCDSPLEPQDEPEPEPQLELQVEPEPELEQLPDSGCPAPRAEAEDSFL
# UniProt P08581, sequence (P08581 whole entry): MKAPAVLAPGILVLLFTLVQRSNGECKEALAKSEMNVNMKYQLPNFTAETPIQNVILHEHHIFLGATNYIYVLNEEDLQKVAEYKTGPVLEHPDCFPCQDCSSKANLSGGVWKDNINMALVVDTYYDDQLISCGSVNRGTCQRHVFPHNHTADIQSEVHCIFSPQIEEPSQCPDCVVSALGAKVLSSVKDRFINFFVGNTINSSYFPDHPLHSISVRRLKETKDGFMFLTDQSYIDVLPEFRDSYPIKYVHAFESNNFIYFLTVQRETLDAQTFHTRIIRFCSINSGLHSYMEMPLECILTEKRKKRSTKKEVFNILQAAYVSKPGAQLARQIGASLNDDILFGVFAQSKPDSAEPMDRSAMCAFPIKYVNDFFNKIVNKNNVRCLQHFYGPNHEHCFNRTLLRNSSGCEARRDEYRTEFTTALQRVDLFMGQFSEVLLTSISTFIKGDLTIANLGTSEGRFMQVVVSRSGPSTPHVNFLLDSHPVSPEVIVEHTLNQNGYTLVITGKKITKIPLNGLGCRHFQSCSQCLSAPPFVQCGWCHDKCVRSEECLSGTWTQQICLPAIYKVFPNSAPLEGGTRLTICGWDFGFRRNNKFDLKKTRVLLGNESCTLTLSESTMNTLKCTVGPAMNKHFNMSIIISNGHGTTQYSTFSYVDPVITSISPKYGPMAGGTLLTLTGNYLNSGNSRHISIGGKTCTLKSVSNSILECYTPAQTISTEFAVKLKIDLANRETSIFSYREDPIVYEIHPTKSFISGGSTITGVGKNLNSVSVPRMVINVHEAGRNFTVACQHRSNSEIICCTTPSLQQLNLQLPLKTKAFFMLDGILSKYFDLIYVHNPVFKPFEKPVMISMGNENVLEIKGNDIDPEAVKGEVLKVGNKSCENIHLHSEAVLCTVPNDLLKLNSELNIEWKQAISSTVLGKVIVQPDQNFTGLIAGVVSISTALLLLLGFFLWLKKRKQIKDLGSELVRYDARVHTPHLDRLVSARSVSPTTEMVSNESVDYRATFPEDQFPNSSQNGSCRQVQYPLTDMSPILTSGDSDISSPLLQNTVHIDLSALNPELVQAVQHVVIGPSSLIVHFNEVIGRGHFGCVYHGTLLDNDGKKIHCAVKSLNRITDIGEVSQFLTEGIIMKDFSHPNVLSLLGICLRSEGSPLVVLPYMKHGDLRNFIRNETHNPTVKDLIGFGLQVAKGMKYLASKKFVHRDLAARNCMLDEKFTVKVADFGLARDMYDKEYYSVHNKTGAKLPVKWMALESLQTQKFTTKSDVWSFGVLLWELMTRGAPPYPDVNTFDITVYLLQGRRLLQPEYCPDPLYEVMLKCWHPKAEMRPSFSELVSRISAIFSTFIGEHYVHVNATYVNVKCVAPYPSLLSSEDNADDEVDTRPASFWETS
# UniProt P16234, sequence (P16234 whole entry): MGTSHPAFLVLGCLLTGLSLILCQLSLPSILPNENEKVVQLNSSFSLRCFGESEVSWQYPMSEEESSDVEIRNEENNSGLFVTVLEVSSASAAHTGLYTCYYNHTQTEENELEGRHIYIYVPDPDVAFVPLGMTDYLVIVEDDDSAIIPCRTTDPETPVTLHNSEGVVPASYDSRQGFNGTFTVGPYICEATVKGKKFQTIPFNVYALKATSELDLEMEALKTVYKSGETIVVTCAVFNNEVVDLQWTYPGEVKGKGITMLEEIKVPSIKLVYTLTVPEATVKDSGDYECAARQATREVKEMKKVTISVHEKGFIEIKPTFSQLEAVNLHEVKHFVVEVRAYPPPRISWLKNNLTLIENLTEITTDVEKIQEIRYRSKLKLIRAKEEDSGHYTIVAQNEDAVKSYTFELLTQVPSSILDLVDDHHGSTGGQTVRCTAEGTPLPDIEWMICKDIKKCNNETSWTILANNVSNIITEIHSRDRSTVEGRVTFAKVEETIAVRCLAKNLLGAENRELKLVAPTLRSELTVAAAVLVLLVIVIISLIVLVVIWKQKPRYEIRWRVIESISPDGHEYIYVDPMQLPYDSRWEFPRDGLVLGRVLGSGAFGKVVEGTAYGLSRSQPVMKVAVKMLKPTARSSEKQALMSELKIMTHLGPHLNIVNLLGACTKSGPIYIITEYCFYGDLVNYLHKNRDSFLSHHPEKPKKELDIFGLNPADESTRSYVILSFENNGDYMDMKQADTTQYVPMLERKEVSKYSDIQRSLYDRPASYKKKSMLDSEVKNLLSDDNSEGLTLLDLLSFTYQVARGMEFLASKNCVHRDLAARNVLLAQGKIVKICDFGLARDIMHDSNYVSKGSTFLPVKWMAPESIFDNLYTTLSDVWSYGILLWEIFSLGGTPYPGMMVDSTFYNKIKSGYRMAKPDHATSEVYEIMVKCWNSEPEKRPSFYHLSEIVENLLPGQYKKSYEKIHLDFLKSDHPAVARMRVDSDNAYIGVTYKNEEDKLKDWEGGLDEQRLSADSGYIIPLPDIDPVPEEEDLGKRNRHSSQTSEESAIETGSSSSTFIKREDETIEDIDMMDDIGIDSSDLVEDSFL
# UniProt P29376, sequence (P29376 whole entry): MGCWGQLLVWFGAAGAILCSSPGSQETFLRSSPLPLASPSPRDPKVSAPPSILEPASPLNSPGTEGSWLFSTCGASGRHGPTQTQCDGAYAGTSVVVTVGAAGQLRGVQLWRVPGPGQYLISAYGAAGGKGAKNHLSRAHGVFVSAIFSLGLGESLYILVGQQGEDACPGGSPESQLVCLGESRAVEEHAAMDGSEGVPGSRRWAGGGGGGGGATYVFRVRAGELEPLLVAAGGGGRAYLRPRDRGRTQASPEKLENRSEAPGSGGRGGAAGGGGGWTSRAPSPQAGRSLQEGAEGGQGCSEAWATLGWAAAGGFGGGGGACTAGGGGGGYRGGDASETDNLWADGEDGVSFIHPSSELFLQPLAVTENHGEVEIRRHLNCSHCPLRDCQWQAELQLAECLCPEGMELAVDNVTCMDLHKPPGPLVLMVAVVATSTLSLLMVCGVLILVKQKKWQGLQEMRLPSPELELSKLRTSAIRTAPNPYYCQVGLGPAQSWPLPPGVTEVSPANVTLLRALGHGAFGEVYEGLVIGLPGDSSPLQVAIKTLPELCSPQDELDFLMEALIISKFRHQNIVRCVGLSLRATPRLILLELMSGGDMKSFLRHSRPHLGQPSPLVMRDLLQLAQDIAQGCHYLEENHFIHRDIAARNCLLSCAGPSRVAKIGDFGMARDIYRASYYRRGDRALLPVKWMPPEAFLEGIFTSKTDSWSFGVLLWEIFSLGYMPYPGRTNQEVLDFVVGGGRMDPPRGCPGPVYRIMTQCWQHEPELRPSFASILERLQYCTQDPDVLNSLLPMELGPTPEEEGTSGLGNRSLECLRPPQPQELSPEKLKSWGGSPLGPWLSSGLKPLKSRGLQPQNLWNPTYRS
# UniProt P07948, sequence (P07948 whole entry, looked up): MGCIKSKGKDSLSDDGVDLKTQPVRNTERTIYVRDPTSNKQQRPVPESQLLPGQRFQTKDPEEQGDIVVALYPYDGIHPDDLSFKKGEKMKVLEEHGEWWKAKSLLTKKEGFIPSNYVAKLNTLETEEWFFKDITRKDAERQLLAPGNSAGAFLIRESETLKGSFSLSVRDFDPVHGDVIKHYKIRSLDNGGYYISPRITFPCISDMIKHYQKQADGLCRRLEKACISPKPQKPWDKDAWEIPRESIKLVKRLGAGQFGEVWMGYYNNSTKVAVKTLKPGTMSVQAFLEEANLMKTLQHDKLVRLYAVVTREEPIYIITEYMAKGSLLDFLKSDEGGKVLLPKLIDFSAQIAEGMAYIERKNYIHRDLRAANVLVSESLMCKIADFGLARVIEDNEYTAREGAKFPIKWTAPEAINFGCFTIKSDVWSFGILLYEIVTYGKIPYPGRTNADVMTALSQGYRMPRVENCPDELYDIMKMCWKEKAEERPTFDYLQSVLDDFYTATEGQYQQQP
Compound,inhibition [1] [%],inhibition [2] [%],inhibition [3] [%],inhibition [4] [%],inhibition [5] [%],inhibition [6] [%],inhibition [7] [%],inhibition [8] [%],inhibition [9] [%],inhibition [10] [%],inhibition [11] [%],inhibition [12] [%],inhibition [13] [%],inhibition [14] [%],inhibition [15] [%],inhibition [16] [%],inhibition [17] [%],inhibition [18] [%],inhibition [19] [%],inhibition [20] [%]
CS(=O)(=O)c1ccc(Oc2nccc(-c3c(-c4ccc(F)cc4)ncn3C3CCNCC3)n2)cc1,4.8,5.75,7.35,3.63,3.45,-0.14,1.5,5.26,5.77,1.21,2.52,4.16,7.85,4.71,4.47,3.65,5.19,3.55,3.19,-0.81
NC(=O)CCc1ccccc1Oc1nccc(-c2c(-c3ccc(F)cc3)ncn2C2CCNCC2)n1,0.47,0.19,-0.01,-0.13,1.03,-1.03,0.4,4.01,-0.26,-0.09,-2.49,-0.3,2.35,1.4,–,0.05,2.24,2.85,5.29,-0.36
Fc1ccc(-c2ncn(C3CCNCC3)c2-c2ccnc(Oc3cccc(C(F)(F)F)c3)n2)cc1,4.42,5.95,6.82,4.14,4.77,-0.02,-0.63,6.83,6.95,1.84,-1.08,9.14,14.6,3.71,5.48,6.65,13.6,3.34,5.74,2.23
